# In all, about 2,900 compounds were measured (“IRF Lucia reporter activity, fold change vs agonist alone”: median about 0.9, highest 2% from about 2.8 on). The list shows a part of the results.
# Tests used:
# RAW-Dual [1] = test: IRF Lucia reporter activity, fold change vs agonist alone; cytotoxicity flag (confluency mask): not cytotoxic; higher = enhanced IRF activity
# Outline: (§1)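 RAW-Dual macrophages were seeded in DMEM at 50,000 cells/well in 384-well plates, given 50 nL of library stock by pin tool, and given a PRR agonist 1 h later. Plates were held at 37 °C, 5% CO2 for 20 hours, after which supernatant was read for IRF by QuantiLuc luminescence and for NF-κB by QuantiBlue absorbance at 620 nm. Reporter activity is expressed as fold change over wells that received agonist alone. A well was called cytotoxic when IncuCyte confluency fell below 70% of agonist controls in both mask sets.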
# RAW-Dual [2] = test: IRF Lucia reporter activity, fold change vs agonist alone; higher = enhanced IRF activity; conditions: library stock concentration (final ~1000-fold dilution): 10 mM, agonist: MPLA (TLR4) […]
# Outline: as §1
# RAW-Dual [3] = test: IRF Lucia reporter activity, fold change vs agonist alone; cytotoxicity flag (confluency mask): cytotoxic (confluency <70% of control); higher = enhanced IRF activity
# Outline: as §1
# [4] = agonist: 3'3'-cGAMP (STING) 10 ug/mL
# [5] = cytotoxicity flag (confluency mask): cytotoxic (confluency <70% of control)
# [6] = cytotoxicity flag (confluency mask): not cytotoxic
compound,measurement,setting,value
CCC12C=CCN3CCC4(C(=C(C(=O)OC)C1)Nc1ccccc14)C32 (stereo not given) (library stock concentration (final ~1000-fold dilution): 10 mM),IRF Lucia reporter activity,RAW-Dual [1]; [4],0.0884
same,IRF Lucia reporter activity,RAW-Dual [1]; agonist: LPS (TLR4) 0.1 ug/mL,0.14
Cl.Cl.Fc1ccc(C(OCCN2CCN(CCCc3ccccc3)CC2)c2ccc(F)cc2)cc1,IRF Lucia reporter activity,RAW-Dual [2]; [5],0.846
Cl.Cl.Fc1ccc(C(OCCN2CCN(CCCc3ccccc3)CC2)c2ccc(F)cc2)cc1 (library stock concentration (final ~1000-fold dilution): 10 mM),IRF Lucia reporter activity,RAW-Dual [3]; [4],0.202
same,IRF Lucia reporter activity,RAW-Dual [3]; agonist: LPS (TLR4) 0.1 ug/mL,0.637
O=C(CBr)N1CC([N+](=O)[O-])([N+](=O)[O-])C1 (library stock concentration (final ~1000-fold dilution): 10 mM),IRF Lucia reporter activity,RAW-Dual [3]; [4],0.129
same,IRF Lucia reporter activity,RAW-Dual [3]; agonist: LPS (TLR4) 0.1 ug/mL,0.0763
O=C(OC1CC2CCC(C1)[N+]21CCCC1)C(O)(c1ccccc1)c1ccccc1 (stereo not given) (library stock concentration (final ~1000-fold dilution): 10 mM),IRF Lucia reporter activity,RAW-Dual [1]; [4],0.947
same,IRF Lucia reporter activity,RAW-Dual [1]; agonist: LPS (TLR4) 0.1 ug/mL,1.01
O=C(OC1CC2CCC(C1)[N+]21CCCC1)C(O)(c1ccccc1)c1ccccc1 (stereo not given),IRF Lucia reporter activity,RAW-Dual [2]; [6],0.921
O=C(O)CC[N+](=O)[O-],IRF Lucia reporter activity,RAW-Dual [2]; [6],1.17
O=C(O)CC[N+](=O)[O-] (library stock concentration (final ~1000-fold dilution): 10 mM),IRF Lucia reporter activity,RAW-Dual [1]; [4],1.04
same,IRF Lucia reporter activity,RAW-Dual [1]; agonist: LPS (TLR4) 0.1 ug/mL,1
CC(C)=CCCC(C)(O)C1CCC2(C)C1C(O)CC1C3(C)CCC(OC4OC(CO)C(O)C(O)C4O)C(C)(C)C3CCC12C (stereo not given) (library stock concentration (final ~1000-fold dilution): 10 mM),IRF Lucia reporter activity,RAW-Dual [1]; [4],0.948
same,IRF Lucia reporter activity,RAW-Dual [1]; agonist: LPS (TLR4) 0.1 ug/mL,0.902
Nc1ncnc2c1ccn2C1OC(CO)C(O)C1O (stereo not given) (library stock concentration (final ~1000-fold dilution): 10 mM),IRF Lucia reporter activity,RAW-Dual [3]; [4],0.0112
same,IRF Lucia reporter activity,RAW-Dual [3]; agonist: LPS (TLR4) 0.1 ug/mL,0.0189
COc1cc2c(cc1OC)C(Cc1ccc(O)c(Oc3cc4c(cc3OC)CCN(C)C4Cc3ccc(O)cc3)c1)N(C)CC2.[O-][Cl+3]([O-])([O-])O (stereo not given) (library stock concentration (final ~1000-fold dilution): 10 mM),IRF Lucia reporter activity,RAW-Dual [1]; [4],0.0548
same,IRF Lucia reporter activity,RAW-Dual [1]; agonist: LPS (TLR4) 0.1 ug/mL,0.74
O=C(O)CNC(=O)C1C(=O)N(C2CCCCC2)C(=O)N(C2CCCCC2)C1=O (library stock concentration (final ~1000-fold dilution): 10 mM),IRF Lucia reporter activity,RAW-Dual [1]; [4],0.947
same,IRF Lucia reporter activity,RAW-Dual [1]; agonist: LPS (TLR4) 0.1 ug/mL,1.18
Cl.NC1CC1c1ccccc1 (stereo not given),IRF Lucia reporter activity,RAW-Dual [2]; [6],1.09
Cl.NC1CC1c1ccccc1 (stereo not given) (library stock concentration (final ~1000-fold dilution): 10 mM),IRF Lucia reporter activity,RAW-Dual [1]; [4],1.08
same,IRF Lucia reporter activity,RAW-Dual [1]; agonist: LPS (TLR4) 0.1 ug/mL,1.14
COc1ccc2c(c1OC)CN1CCc3cc4c(cc3C1C2)OCO4 (stereo not given) (library stock concentration (final ~1000-fold dilution): 10 mM),IRF Lucia reporter activity,RAW-Dual [1]; [4],0.849
same,IRF Lucia reporter activity,RAW-Dual [1]; agonist: LPS (TLR4) 0.1 ug/mL,1.29
COc1ccc2c(c1OC)CN1CCc3cc4c(cc3C1C2)OCO4 (stereo not given),IRF Lucia reporter activity,RAW-Dual [2]; [6],1.14
COc1cc(C)[nH]c(=O)c1CNC(=O)c1c(C)n(C(C)C2CCOCC2)c2ccccc12 (stereo not given) (library stock concentration (final ~1000-fold dilution): 10 mM),IRF Lucia reporter activity,RAW-Dual [1]; [4],1.17
same,IRF Lucia reporter activity,RAW-Dual [1]; agonist: LPS (TLR4) 0.1 ug/mL,1.23
O=C(O)c1nn(Cc2ccc(Cl)cc2Cl)c2ccccc12 (library stock concentration (final ~1000-fold dilution): 10 mM),IRF Lucia reporter activity,RAW-Dual [1]; [4],0.95
same,IRF Lucia reporter activity,RAW-Dual [1]; agonist: LPS (TLR4) 0.1 ug/mL,1.07
O=C(O)c1nn(Cc2ccc(Cl)cc2Cl)c2ccccc12,IRF Lucia reporter activity,RAW-Dual [2]; [6],1.03
Cc1cc(C(C#N)c2ccc(Cl)cc2)c(Cl)cc1NC(=O)c1cc(I)cc(I)c1O (stereo not given) (library stock concentration (final ~1000-fold dilution): 10 mM),IRF Lucia reporter activity,RAW-Dual [1]; [4],0.797
same,IRF Lucia reporter activity,RAW-Dual [1]; agonist: LPS (TLR4) 0.1 ug/mL,0.817
Cc1cc(C(C#N)c2ccc(Cl)cc2)c(Cl)cc1NC(=O)c1cc(I)cc(I)c1O (stereo not given),IRF Lucia reporter activity,RAW-Dual [2]; [6],0.822
CC(C)(C)c1cc(C=C(C#N)C#N)cc(C(C)(C)C)c1O,IRF Lucia reporter activity,RAW-Dual [2]; [5],2.06
CC(C)(C)c1cc(C=C(C#N)C#N)cc(C(C)(C)C)c1O (library stock concentration (final ~1000-fold dilution): 10 mM),IRF Lucia reporter activity,RAW-Dual [3]; [4],0.0158
same,IRF Lucia reporter activity,RAW-Dual [3]; agonist: LPS (TLR4) 0.1 ug/mL,2.17
O=C1C=C2C=CC3CC2(O1)C1CCCCN31 (stereo not given) (library stock concentration (final ~1000-fold dilution): 10 mM),IRF Lucia reporter activity,RAW-Dual [1]; [4],0.438
same,IRF Lucia reporter activity,RAW-Dual [1]; agonist: LPS (TLR4) 0.1 ug/mL,0.623
CC(=O)O.Cc1cc2c(C(C)C)c(O)c(O)c(C=O)c2c(O)c1-c1c(C)cc2c(C(C)C)c(O)c(O)c(C=O)c2c1O,IRF Lucia reporter activity,RAW-Dual [2]; [6],1.13
CC(=O)O.Cc1cc2c(C(C)C)c(O)c(O)c(C=O)c2c(O)c1-c1c(C)cc2c(C(C)C)c(O)c(O)c(C=O)c2c1O (library stock concentration (final ~1000-fold dilution): 10 mM),IRF Lucia reporter activity,RAW-Dual [1]; [4],0.981
same,IRF Lucia reporter activity,RAW-Dual [1]; agonist: LPS (TLR4) 0.1 ug/mL,1.28
Cl.ClCCN(Cc1ccccc1)Cc1ccccc1 (library stock concentration (final ~1000-fold dilution): 10 mM),IRF Lucia reporter activity,RAW-Dual [3]; [4],0.0495
same,IRF Lucia reporter activity,RAW-Dual [3]; agonist: LPS (TLR4) 0.1 ug/mL,0.138

# From the supplement of paper PMC10037445
